The values that follow come from article PMC10010621, “ATP binding by an F1Fo ATP synthase ε subunit is pH dependent, suggesting a diversity of ε subunit functional regulation in bacteria” (Frontiers in Molecular Biosciences, 2023).

Like-named read-outs stand apart in the source and are kept apart here.

Test [1] has as its target C. thermarum ε subunit (WT, εK109C, Cy3-labelled) (Caldalkalibacillus thermarum, UniProt F5LA71, K109C). Format: binding, Caldalkalibacillus thermarum TA2.A1. To be noted: for Kd: Kd (ATP binding), equimolar Mg2+, .4 μM Cy3-labelled ε subunit, hyperbolic 1-site fitting, 22°C. The protocol:
(§1) The C. thermarum ε subunits were labeled as decribed previously in Krah et al., 2021 ([Krah et al., 2021]). Both ε subunit samples were desalted with a PD Minitrap™ G-25 (GE Healthcare) equilibrated with 50 mM HEPES-NaOH (pH 6.5) and 100 mM NaCl. TCEP was added in a 5:1 protein molar ratio to the ε subunit samples and they were incubated for 2 h at 25°C. Cy3 maleimide in dimethylsulfoxide (DMSO) was then added in a 5:1 dye to protein molar ratio and the mixture incubated for a further 2 h at 25°C. temperature. Excess dye was removed with the same centrifuge column equilibrated with 50 mM HEPES-KOH (pH 7.5), 100 mM KCl, 10 mM MgCl2. Labeling was subsequently analyzed by SDS-PAGE and Cy3 maleimide labeling detected by imaging the unstained gel with an Amersham Typhoon Imaging System (GE Healthcare). Gels were subsequently stained with SimplyBlue™ SafeStain (Invitrogen).
ATP binding was detected via fluorescence using a Synergy 2 Microplate Reader (Biotek). Cy3 maleimide fluorescence was measured at 22°C during ATP binding to either C. thermarum ε subunit or the ε6A variant, in a system with an excitation filter of 530 nm (25 nm bandwidth) and an emission filter at 590 nm (35 nm bandwidth). Each reaction mixture contained 800 nM labeled ε subunit in 50 mM MOPS-Tris buffer (either pH 7.0, 7.5, 8.0, 8.5), 100 mM KCl and equimolar MgCl2:ATP in a final volume of 195 µL. Fluorescence was measured for 30–60 s at 1.66 Hz followed by an injection of concentrated 5 µL ATP in the same buffer. […] Fluorescence was measured over the course of the experimental observation window for 6 min at 1.66 Hz.

Test [2] concerns C. thermarum ε6A mutant ε subunit (εR116A, εH117A, εK118A, εR119A, εR123A, εR127A; εK109C, Cy3-labelled). Nature of the test: ATP binding assay (Cy3 maleimide fluorescence), ε6A mutant ε subunit. Further details: species or system Caldalkalibacillus thermarum TA2.A1. The conditions noted are these: any pH tested (7.0, 7.5, 8.0, 8.5). As for the experimental part:
as §1, with “Gels were subsequently stained with SimplyBlue™ SafeStain (Invitrogen).” left out
ATP binding was detected via fluorescence using a Synergy 2 Microplate Reader (Biotek). Cy3 maleimide fluorescence was measured at 22°C during ATP binding to either C. thermarum ε subunit or the ε6A variant, in a system with an excitation filter of 530 nm (25 nm bandwidth) and an emission filter at 590 nm (35 nm bandwidth). […] Fluorescence was measured for 30–60 s at 1.66 Hz followed by an injection of concentrated 5 µL ATP in the same buffer. […] Fluorescence was measured over the course of the experimental observation window for 6 min at 1.66 Hz.

The term Kd denotes the constant that tells how readily two partners part at equilibrium. On to `Nc1ncnc2c1ncn2[C@@H]1O[C@H](COP(=O)(O)OP(=O)(O)OP(=O)(O)O)[C@@H](O)[C@H]1O` [ATP], for which the Kd in test [1] (pH 7.0) was 20.2 mM; in test [1] (pH 7.5), 16.5 mM; in test [1] (pH 8.0), 4.9 mM; in test [1] (pH 8.5) it was 3.4 mM. For the same compound, the “decrease of affinity of the ε subunit for ATP” value in test [1] (intracellular pH drops to 7.8 (see Figure 4D)) was about 40%. Moreover, the “change of binding affinity between pH 7.0 and pH 8.5” value in test [1] (pH 7.0 (weakest) to pH 8.5 (strongest)) stood at 5.9 fold. Further, the ATP binding result in test [2] is recorded as “did not bind any measurable ATP”.
